Reference: paper PMC8576304
Positions count from the first letter of the chain named. Results are given in words; binding and its absence hold for the method and conditions named. Binding seen in cells or lysates may run through a third protein. Some results given as binding are weak or reduced against the parent protein; the word gives no strength. For part of these data: Where a sequence is shown, tags or fusion partners need not be part of it. One block for each molecule: values may come before it.

The chains behind the UniProt entries cited, without tags or fusion partners.
UniProt Q92993: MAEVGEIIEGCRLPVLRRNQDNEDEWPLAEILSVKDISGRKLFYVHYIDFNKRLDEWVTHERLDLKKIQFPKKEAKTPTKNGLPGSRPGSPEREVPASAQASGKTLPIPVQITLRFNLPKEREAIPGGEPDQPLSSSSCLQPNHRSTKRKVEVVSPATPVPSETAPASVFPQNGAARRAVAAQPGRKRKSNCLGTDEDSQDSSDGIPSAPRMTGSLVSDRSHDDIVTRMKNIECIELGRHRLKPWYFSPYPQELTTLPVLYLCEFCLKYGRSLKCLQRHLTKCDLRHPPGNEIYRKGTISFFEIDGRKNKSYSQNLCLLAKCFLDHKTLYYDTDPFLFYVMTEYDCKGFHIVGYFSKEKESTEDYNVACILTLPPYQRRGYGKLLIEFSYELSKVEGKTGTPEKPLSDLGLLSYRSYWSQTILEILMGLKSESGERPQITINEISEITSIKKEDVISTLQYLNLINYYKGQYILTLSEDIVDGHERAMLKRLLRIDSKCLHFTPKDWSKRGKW
UniProt P46937: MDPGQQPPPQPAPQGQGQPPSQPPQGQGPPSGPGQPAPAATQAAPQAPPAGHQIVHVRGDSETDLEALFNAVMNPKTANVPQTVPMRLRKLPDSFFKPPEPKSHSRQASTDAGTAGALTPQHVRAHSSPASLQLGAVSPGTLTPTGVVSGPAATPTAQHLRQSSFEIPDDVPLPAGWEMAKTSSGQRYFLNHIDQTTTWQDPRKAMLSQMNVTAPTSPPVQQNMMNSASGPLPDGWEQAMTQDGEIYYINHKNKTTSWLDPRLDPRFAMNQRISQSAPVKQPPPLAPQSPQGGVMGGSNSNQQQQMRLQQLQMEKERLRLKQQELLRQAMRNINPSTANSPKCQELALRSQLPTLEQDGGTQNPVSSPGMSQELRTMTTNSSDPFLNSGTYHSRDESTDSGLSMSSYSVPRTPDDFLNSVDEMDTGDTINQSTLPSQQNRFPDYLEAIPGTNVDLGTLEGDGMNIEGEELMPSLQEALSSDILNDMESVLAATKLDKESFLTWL

Experiments:
TFCP2-Myc [1] = target: T1, TFCP2-Myc (UniProt Q12800); assay: condition: only cells treated with erastin (5 μM, 4 h); co-IP; as a3, cells treated with erastin (5 μM, 4 h)
T1 sequence: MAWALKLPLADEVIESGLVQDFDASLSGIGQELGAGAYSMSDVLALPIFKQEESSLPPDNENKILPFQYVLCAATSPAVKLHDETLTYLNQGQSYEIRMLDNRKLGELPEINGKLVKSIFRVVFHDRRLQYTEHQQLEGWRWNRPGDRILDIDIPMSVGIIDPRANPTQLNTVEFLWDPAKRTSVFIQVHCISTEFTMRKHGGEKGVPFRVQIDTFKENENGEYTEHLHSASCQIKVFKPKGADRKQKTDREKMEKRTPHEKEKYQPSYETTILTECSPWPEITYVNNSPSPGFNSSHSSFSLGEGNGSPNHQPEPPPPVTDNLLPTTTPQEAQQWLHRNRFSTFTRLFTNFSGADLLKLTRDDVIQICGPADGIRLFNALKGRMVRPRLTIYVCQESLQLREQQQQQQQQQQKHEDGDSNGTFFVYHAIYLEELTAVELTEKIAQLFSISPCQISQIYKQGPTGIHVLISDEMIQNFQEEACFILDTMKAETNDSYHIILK

TFCP2-Myc [2] = target: T1, TFCP2-Myc; assay: condition: only cells treated with erastin (5 μM, 4 h); proximity ligation; as a5, cells treated with erastin (5 μM, 4 h)
TFCP2-Myc [3] = target: T1, TFCP2-Myc; assay: proximity ligation; Duolink in situ Red kit, anti-Myc and anti-HA antibodies, PC9 cells transfected with the indicated vectors
TFCP2^Y269A-Myc [4] = target: T2, TFCP2^Y269A-Myc (UniProt Q12800); assay: as above
T2 sequence: T1 sequence with Y269A

TFCP2-Myc [5] = target: T1, TFCP2-Myc; assay: co-IP; TFCP2-Myc and YAP-HA vectors transfected into PC9 or H1299 cells; anti-Myc (or anti-HA) antibodies, immunoblot; bait level adjusted to the same content
TFCP2^Y269A-Myc [6] = target: T2, TFCP2^Y269A-Myc; assay: as above
[7] = target: lysine acetyltransferase 5 (endogenous) (human (endogenous in PC9)) (UniProt Q92993); assay: co-IP; endogenous proteins; IgG, anti-KAT5 and anti-TFCP2 antibodies, PC9 cells, immunoblot
[8] = target: Yes-associated protein (endogenous) (human (endogenous in PC9 and H1299)) (UniProt P46937); assay: condition: only cells treated with erastin (10 μM, 24 h); co-IP; as a1, cells treated with erastin (10 μM, 24 h) before lysis
[9] = target: Yes-associated protein (endogenous) (human (endogenous in PC9 and H1299)) (UniProt P46937); assay: co-IP; endogenous proteins; anti-YAP antibodies, whole cell lysates of PC9 or H1299 cells, protein A/G magnetic beads, immunoblot; YAP level in each co-IP sample adjusted to the same content; also in PC9 cells with KAT5 overexpression or knockdown (Figure 6P)

- binding (TFCP2-Myc [1]): no binding
- binding (TFCP2-Myc [2]): no binding
- binding (TFCP2-Myc [3]): binds
- binding (TFCP2^Y269A-Myc [4]): no binding
- binding (TFCP2-Myc [5]): binds
- binding (TFCP2^Y269A-Myc [6]): no binding
Molecule: YAP-HA (from UniProt P46937 1-504)

- binding [7]: binds
- binding [8]: no binding
- binding [9]: binds
B1: transcription factor CP2 (endogenous) (protein, UniProt Q12800 1-502)
chain: T1 sequence
